Laboratory results reported in US11072591B2, “Tetrazole compounds and their use in the treatment of tuberculosis” (GLAXOSMITHKLINE INTELLECTUAL PROPERTY DEVELOPMENT LIMITED, priority 2017, dated 2021).
Some results were stated once for a whole list of compounds, not compound by compound.

Tested on: M. tuberculosis H37Rv
Assay: Mycobacterium tuberculosis H37Rv Inhibition Assay (Whole Cell Assay), MIC
Assay type: cell-based
Settings: Middlebrook 7H9 + ADC, 37° C. six days, resazurin readout

Cc1cc(-c2nnn(CC3CCCCO3)n2)ccc1S(=O)(=O)NCCO (single isomer, unassigned) [Example 72 Isomer 1, N-(2-hydroxyethyl)-2-methyl-4-(2-((tetrahydro-2H-pyran-2-yl)methyl)-2H-tetrazol-5-yl)benzenesulfonamide]
MIC_H37Rv (μM) (listed as 72 Isomer 1): +++ (≥1 μM to <5 μM = +++)

Cc1cc(-c2nnn(CC3CCCCO3)n2)ccc1S(=O)(=O)NCCO (single isomer, unassigned) [Example 72 Isomer 2, N-(2-hydroxyethyl)-2-methyl-4-(2-((tetrahydro-2H-pyran-2-yl)methyl)-2H-tetrazol-5-yl)benzenesulfonamide]
MIC_H37Rv (μM) (listed as 72 Isomer 2): + (≥10 μM to ≤25 μM = +)

Cc1cc(S(=O)(=O)NCCO)ccc1-c1nnn(CC2CCCCO2)n1 (single isomer, unassigned) [Example 74 Isomer 2, N-(2-hydroxyethyl)-3-methyl-4-(2-((tetrahydro-2H-pyran-2-yl)methyl)-2H-tetrazol-5-yl)benzenesulfonamide]
MIC_H37Rv (μM): + (≥10 μM to ≤25 μM = +)

O=S(=O)(NCCO)c1ccc(-c2nnn(CC3CCCCO3)n2)cc1F (single isomer, unassigned) [Example 76 Isomer 1, 2-fluoro-N-(2-hydroxyethyl)-4-(2-((tetrahydro-2H-pyran-2-yl)methyl)-2H-tetrazol-5-yl)benzenesulfonamide]
MIC_H37Rv (μM) (listed as 76 Isomer 1): ++++ (<0.1 μM = ++++)

O=S(=O)(NCCO)c1ccc(-c2nnn(CC3CCCCO3)n2)cc1F (single isomer, unassigned) [Example 76 Isomer 2, 2-fluoro-N-(2-hydroxyethyl)-4-(2-((tetrahydro-2H-pyran-2-yl)methyl)-2H-tetrazol-5-yl)benzenesulfonamide]
MIC_H37Rv (μM) (listed as 76 Isomer 2): ++ (≥5 μM to <10 μM = ++)

O=S(=O)(NCCO)c1ccc(-c2nnn(CC3CCCCO3)n2)c(F)c1 (single isomer, unassigned) [Example 84 Isomer 1, 3-fluoro-N-(2-hydroxyethyl)-4-(2-((tetrahydro-2H-pyran-2-yl)methyl)-2H-tetrazol-5-yl)benzenesulfonamide]
MIC_H37Rv (μM) (listed as 84 Isomer 1): ++++ (<0.1 μM = ++++)

O=S(=O)(NCCO)c1ccc(-c2nnn(CC3CCCCO3)n2)c(F)c1 (single isomer, unassigned) [Example 84 Isomer 2, 3-fluoro-N-(2-hydroxyethyl)-4-(2-((tetrahydro-2H-pyran-2-yl)methyl)-2H-tetrazol-5-yl)benzenesulfonamide]
MIC_H37Rv (μM) (listed as 84 Isomer 2): +++ (≥1 μM to <5 μM = +++)

O=S(=O)(NCCO)c1ccc(-c2nnn(CC3CCCCO3)n2)c(F)c1F (single isomer, unassigned) [Example 86 Isomer 1, 2,3-difluoro-N-(2-hydroxyethyl)-4-(2-((tetrahydro-2H-pyran-2-yl)methyl)-2H-tetrazol-5-yl)benzenesulfonamide]
MIC_H37Rv (μM) (listed as 86 Isomer 1): ++++ (<0.1 μM = ++++)

O=S(=O)(NCCO)c1ccc(-c2nnn(CC3CCCCO3)n2)c(F)c1F (single isomer, unassigned) [Example 86 Isomer 2, 2,3-difluoro-N-(2-hydroxyethyl)-4-(2-((tetrahydro-2H-pyran-2-yl)methyl)-2H-tetrazol-5-yl)benzenesulfonamide]
MIC_H37Rv (μM) (listed as 86 Isomer 2): ++ (≥5 μM to <10 μM = ++)

O=S(=O)(NCCO)c1c(F)cc(-c2nnn(CC3CCCCO3)n2)cc1F (single isomer, unassigned) [Example 88 Isomer 1, 2,6-difluoro-N-(2-hydroxyethyl)-4-(2-((tetrahydro-2H-pyran-2-yl)methyl)-2H-tetrazol-5-yl)benzenesulfonamide]
MIC_H37Rv (μM) (listed as 88 Isomer 1): ++++ (<0.1 μM = ++++)

O=S(=O)(NCCO)c1c(F)cc(-c2nnn(CC3CCCCO3)n2)cc1F (single isomer, unassigned) [Example 88 Isomer 2, 2,6-difluoro-N-(2-hydroxyethyl)-4-(2-((tetrahydro-2H-pyran-2-yl)methyl)-2H-tetrazol-5-yl)benzenesulfonamide]
MIC_H37Rv (μM) (listed as 88 Isomer 2): +++ (≥1 μM to <5 μM = +++)

N#CCNS(=O)(=O)c1ccc(-c2nnn(CC3CCCCO3)n2)cc1 (single isomer, unassigned) [Example 94 Isomer 1, N-(cyanomethyl)-4-(2-((tetrahydro-2H-pyran-2-yl)methyl)-2H-tetrazol-5-yl)benzenesulfonamide]
MIC_H37Rv (μM) (listed as 94 Isomer 1): ++++ (<0.1 μM = ++++)

N#CCNS(=O)(=O)c1ccc(-c2nnn(CC3CCCCO3)n2)cc1 (single isomer, unassigned) [Example 94 Isomer 2, N-(cyanomethyl)-4-(2-((tetrahydro-2H-pyran-2-yl)methyl)-2H-tetrazol-5-yl)benzenesulfonamide]
MIC_H37Rv (μM) (listed as 94 Isomer 2): +++ (≥1 μM to <5 μM = +++)

CC(c1ccc(F)cc1)n1cc(-c2ccc(S(=O)(=O)NCCO)cc2)nn1 (single isomer, unassigned) [Example 113 Isomer 1, 4-(1-(1-(4-fluorophenyl)ethyl)-1H-1,2,3-triazol-4-yl)-N-(2-hydroxyethyl)benzenesulfonamide]
MIC_H37Rv (μM) (listed as 113 Isomer 1): +++ (≥1 μM to <5 μM = +++)

CC(c1ccc(F)cc1)n1cc(-c2ccc(S(=O)(=O)NCCO)cc2)nn1 (single isomer, unassigned) [Example 113 Isomer 2, 4-(1-(1-(4-fluorophenyl)ethyl)-1H-1,2,3-triazol-4-yl)-N-(2-hydroxyethyl)benzenesulfonamide]
MIC_H37Rv (μM) (listed as 113 Isomer 2): + (≥10 μM to ≤25 μM = +)

CC(c1ccc(F)cc1)n1nnc(-c2ccc(S(=O)(=O)NCC(N)=O)cc2)n1 (single isomer, unassigned) [Example 114 Isomer 1, 2-(4-(2-(1-(4-fluorophenyl)ethyl)-2H-tetrazol-5-yl)phenylsulfonamido)acetamide]
MIC_H37Rv (μM) (listed as 114 Isomer 1): +++ (≥1 μM to <5 μM = +++)

CC(c1ccc(F)cc1)n1nnc(-c2ccc(S(=O)(=O)NCC(N)=O)cc2)n1 (single isomer, unassigned) [Example 114 Isomer 2, 2-(4-(2-(1-(4-fluorophenyl)ethyl)-2H-tetrazol-5-yl)phenylsulfonamido)acetamide]
MIC_H37Rv (μM) (listed as 114 Isomer 2): ++++ (<0.1 μM = ++++)

COc1cc(-c2nnn(C(C)c3ccc(F)cc3)n2)ccc1S(=O)(=O)NCC(N)=O (single isomer, unassigned) [Example 115 Isomer 1, 2-(4-(2-(1-(4-fluorophenyl)ethyl)-2H-tetrazol-5-yl)-2-methoxyphenylsulfonamido)acetamide]
MIC_H37Rv (μM) (listed as 115 Isomer 1): + (≥10 μM to ≤25 μM = +)

COc1cc(-c2nnn(C(C)c3ccc(F)cc3)n2)ccc1S(=O)(=O)NCC(N)=O (single isomer, unassigned) [Example 115 Isomer 2, 2-(4-(2-(1-(4-fluorophenyl)ethyl)-2H-tetrazol-5-yl)-2-methoxyphenylsulfonamido)acetamide]
MIC_H37Rv (μM) (listed as 115 Isomer 2): ++++ (<0.1 μM = ++++)
